Out of some 150,000 compounds screened, about 540 (0.36%) showed an effect of 50% or more. Some of the results follow.
tested on: Plasmodium falciparum; test: Primary screen in NF54 nanoGlo assay, in single point, at 2uM, 72h; a lower Z score goes with more inhibition; assay type: functional, Erythrocyte; conditions: timepoint 72 hour

SMILES | % Inhibition [%] | Z score
O=c1ccc(-c2noc(/C=C/c3ccccc3Cl)n2)c[nH]1 | -14 | 2.65
CC(=O)N1CCN(c2nc(C3CCOCC3)nc3c2cnn3-c2ccccc2)CC1 | 0 | -0.06
O=C(CCC1CCN(Cc2cccc3nonc23)CC1)NCc1cccnc1 | 3 | -0.56
O=C(NCc1ccccc1F)c1c(O)c2cnn(Cc3ccccc3)c2[nH]c1=O | 1 | -0.19
COc1ccc(-c2cnnc(NC[C@H](C)c3ccccc3)n2)cc1 | -9 | 1.26
CN(C)Cc1ccc(-c2cccc3c2CNC3=O)cc1F | 1 | -0.1
Cc1cccc(OCc2nc(C(=O)NC[C@H]3CCCO3)cs2)c1 | -8 | 1.54
FC(F)Cn1c(Cc2ccccn2)nnc1N1CCC2(CCCCC2)CC1 | 3 | -0.65
CC(c1nccs1)N(C)C(=O)CC1(c2cccc(F)c2)CC(=O)N(CCN(C)C)C1=O (stereo not drawn) | -8 | 1.31
CN1CC(=O)N(c2cccc(C(=O)NC3CC3)c2)C1=O | -4 | 0.84
Cc1cccc(C)c1C(=O)NCC(C)(C)CCS(C)(=O)=O | -9 | 1.18
O=C(NCC1(O)CCCCCC1)c1ccccc1 | 0 | -0.05
c1cc(CN2CCN(c3ncnc4c3CCCC4)CC2)ccn1 | -5 | 0.71
O=C(CS(=O)(=O)c1ccc(Br)cc1)N1CCCC1 | -10 | 0.86
C[C@H](NCC(C)(C)c1ccccc1Br)c1nccs1 | 2 | -0.17
CCOC(=O)[C@@H]1CCCCN1S(=O)(=O)C1(C)CC1 | -2 | 0.29
Cc1c(-c2ccccc2)nn2c(=O)cc(CCc3ccccc3F)[nH]c12 | -20 | 1.8
COc1ccc(-c2c(N)n(CCc3ccccc3)c(=O)c3ccccc23)cc1OC | 4 | -0.5
CC(C)N1C[C@H]2CN(C(=O)Cc3ccccc3Cl)C[C@@]2(C(=O)N2CCCC2)C1 | -8 | 1.52
O=C(NCCc1ccc(C2CCCCC2)cc1)[C@@H]1CNCCO1 | -8 | 0.78
Cc1c(NC(C)C2CCOC2)cccc1N(C)C (stereo not drawn) | -7 | 0.98
CN1CCN(c2nc(N)nc(N)c2S(=O)(=O)c2ccccc2)CC1 | 2 | -0.25
COCCOCCNC(=O)c1nc(C)sc1Br | -6 | 0.94
O=C(Cn1cnc2ccccc2c1=O)NCc1cn(-c2cccnc2)nn1 | 4 | -0.56
O=S(=O)(CCc1ccc2c(c1)CCO2)N1CCC[C@H]1c1cccc(F)c1 | -4 | 0.58
C[C@H](NC(=O)N1CC2COCC(C1)O2)c1ccc(Br)cc1F | 4 | -0.37
Cc1cc(CNC(=O)CCN2Cc3cc(Cl)ccc3O[C@@H](C)C2)nn1C | 9 | -1.63

SMILES | % Inhibition [%] | Z score
CCOn1c(-c2ccc(F)cc2)nc2c1OC=NN2OCc1ccccc1 | 35 | -0.68
Cc1nc2ccc(-c3nc(C(C)C)nn3CCO)cc2nc1C | -4 | 0.45
Cc1cccc(N2C(=O)CN(Cc3ccccc3C)[C@H]3CS(=O)(=O)C[C@H]32)c1 | -3 | 0.46
CC(C)n1ncc(C(=O)N2CCCOc3ccccc32)c1Cl | 7 | -0.68
COCCCN1Cc2cc(NC(=O)c3ccccc3)ccc2O[C@@H](C)C1=O | 1 | -0.15
c1cnn(CCNCc2csc(C3CCCC3)n2)c1 | 0 | 0.01
CCOC(=O)c1[nH]c(C)c(C(=O)N2CCC(CC(=O)NCc3cccnc3)CC2)c1C | -22 | 1.92
CCNC(=O)N[C@H]1CO[C@H]2[C@@H]1OC[C@@H]2Nc1nccc(-c2ccc(-c3ccccc3)cc2)n1 | 36 | -0.96
CC(C)c1cccc(N(C)Cc2nnc(C3CCC3)o2)c1 | -14 | 1.19
CC1(C)[C@@H](C(=O)NCc2cncc(O)c2)[C@@H]1c1ccccc1 | -11 | 1.49
CCCN1CC[C@H](CNC(=O)c2cnn(Cc3ccccc3)c2)C1 | 30 | -3.38
CCCCN1CCN([C@@H](C(=O)NCc2nccs2)c2ccccc2)C(=O)C1=O | -15 | 2.84
CCc1nc(C)c(CN2CCC(CCC(=O)Nc3ccccc3Cl)CC2)[nH]1 | -9 | 1.01
Nc1[nH]nc(C(=O)N[C@H]2CCOC[C@@H]2Oc2ccccn2)c1Cl | -11 | 1.29
CNC(=O)[C@H]1CCN(Cc2cnc3c(-c4ccccc4)cnn3c2)C1 | -13 | 1.63
CC(C)c1nnc(NC(=O)C2=NN(c3ccccc3)C(=O)CC2)s1 | -4 | 0.4
CCN(CC(C)C(=O)O)C(=O)COC1CCCCC1C (stereo not drawn) | -6 | 0.54
CN(C)c1ccc(CN2CC(N3CCCCC3)C2)cn1 | -13 | 1.82
COc1ccccc1N1CCN(C(=O)c2cc(C3CC3)[nH]n2)CC1 | 0 | -0.04
Cc1cc(C)cc(NC(=O)N2C[C@H](c3nc(C)no3)C3(CCOCC3)C2)c1 | -1 | 0.18
CN(Cc1cccc(=O)[nH]1)C(=O)Nc1cc2c([nH]c1=O)CCCC2 | -16 | 3.1
C[C@H](NC(N)=O)C(=O)NCCc1cccc(Cl)c1 | -6 | 0.74
Cc1nn(C)c(-c2nc(CC(N)=O)n[nH]2)c1Cl | -4 | 0.49
CC(C)(C)/N=C1\[C@@H](N2CCCC2)C2(CCCCC2)C(=O)N1c1ccccc1 | -35 | 4.11
Cc1ccc(C)c2sc(N(C)CC(=O)NC3CCN(Cc4ccccc4)CC3)nc12 | -5 | 0.96
Cc1ccc(Cl)cc1NC(=O)Cn1nc2c(N3CCC[C@H](C)C3)nccn2c1=O | -10 | 1.26
CC(C)Oc1cc(CN(c2ccc3nnnn3n2)C2CC2)ccn1 | -3 | 0.43
